According to publication PMC4336329 (PLoS ONE, 2015):
Screen size: about 310,000 compounds; about 14,000 (4.5%) showed an effect of 50% or more. Effects have a minus sign here. The list shows a part of the results.

The compounds below were run against human ether-à-go-go-related gene (hERG) potassium channel (human, UniProt Q12809) (assay: primary screen, population patch clamp on CHO cells stably expressing hERG).
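Further: peak tail current of the secondary pulse compared with the same well before compound.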

Chain of human ether-à-go-go-related gene (hERG) potassium channel (Q12809 whole entry, looked up): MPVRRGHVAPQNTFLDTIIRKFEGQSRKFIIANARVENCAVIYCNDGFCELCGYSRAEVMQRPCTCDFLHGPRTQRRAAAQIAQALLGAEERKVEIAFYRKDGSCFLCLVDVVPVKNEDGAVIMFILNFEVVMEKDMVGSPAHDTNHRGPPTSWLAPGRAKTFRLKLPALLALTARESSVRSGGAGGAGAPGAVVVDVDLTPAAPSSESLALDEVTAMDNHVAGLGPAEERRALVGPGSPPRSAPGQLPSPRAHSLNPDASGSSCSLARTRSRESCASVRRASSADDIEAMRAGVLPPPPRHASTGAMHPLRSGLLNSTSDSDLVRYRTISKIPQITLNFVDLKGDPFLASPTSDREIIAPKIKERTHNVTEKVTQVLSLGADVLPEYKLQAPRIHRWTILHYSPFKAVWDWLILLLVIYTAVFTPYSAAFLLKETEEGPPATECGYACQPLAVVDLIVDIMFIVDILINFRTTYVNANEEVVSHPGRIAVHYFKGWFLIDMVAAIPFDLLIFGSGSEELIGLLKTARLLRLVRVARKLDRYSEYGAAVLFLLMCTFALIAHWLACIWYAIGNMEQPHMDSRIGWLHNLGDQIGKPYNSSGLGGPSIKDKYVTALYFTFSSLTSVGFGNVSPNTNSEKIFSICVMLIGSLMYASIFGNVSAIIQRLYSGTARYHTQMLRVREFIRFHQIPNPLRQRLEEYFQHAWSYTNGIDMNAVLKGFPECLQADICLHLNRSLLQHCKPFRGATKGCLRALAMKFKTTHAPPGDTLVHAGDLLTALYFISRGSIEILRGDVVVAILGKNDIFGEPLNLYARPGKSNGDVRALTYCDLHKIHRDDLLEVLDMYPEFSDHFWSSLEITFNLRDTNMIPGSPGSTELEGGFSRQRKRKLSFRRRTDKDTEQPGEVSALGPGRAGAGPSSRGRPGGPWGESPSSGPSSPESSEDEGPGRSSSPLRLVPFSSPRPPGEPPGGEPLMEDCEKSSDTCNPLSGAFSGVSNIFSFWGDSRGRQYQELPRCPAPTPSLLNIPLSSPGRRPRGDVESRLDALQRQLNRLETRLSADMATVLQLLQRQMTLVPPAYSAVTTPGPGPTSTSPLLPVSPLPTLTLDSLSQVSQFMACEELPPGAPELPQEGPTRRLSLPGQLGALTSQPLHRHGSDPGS

In order of rising “hERG current change (%, negative = inhibition) at 10uM” value:
1. Cc1nc2cc(-c3cccc(F)c3)nn2c(C)c1CCC(=O)NC(C)CCc1ccco1 (stereo not shown)  -70.6%
2. OCCC1CN(Cc2ccccc2-c2ccco2)CCN1C1CCCC1 (stereo not shown)  -63.8%
3. O=C(c1cccs1)N1CCCC(c2nc(-c3ccc(F)cc3)no2)C1 (stereo not shown)  -51.7%
4. Cc1ccc2cc(CN(CCN(C)C)C(=S)Nc3ccccc3)c(=O)[nH]c2c1C  -49.9%
5. CCCN1CCN(C(c2cc3cc(OCC)ccc3[nH]c2=O)c2nnnn2C2CCCCC2)CC1 (stereo not shown)  -46.4%
6. CN1CCC(OC(=O)COc2ccc(Cl)cc2Cl)CC1.Cl  -37.6%
7. O=c1c2ccccc2nc(-c2ccccc2)n1CCCn1ccnc1  -31.9%
8. COC(CNC(=O)c1cc(-c2ccncc2)nc2ccc(S(=O)(=O)N3CCOCC3)cc12)OC  -27.1%
9. CCOC(=O)COc1ccc2c(c1)c(C(C)=O)c(C)n2-c1ccc(OC)cc1  -24.7%
10. Cc1nc(C)c(-c2csc(NCc3ccccc3)n2)s1  -18.6%
11. COC(=O)NCc1cc2cc(Cl)ccc2[nH]1  -18%
12. O=C(Nc1ccc(Cl)cc1C(=O)NCCN1CCOCC1)c1ccco1  -16.7%
13. COc1cccc(N(CC(=O)NC2CCCC2)C(=O)CCC(=O)Nc2cc(C)on2)c1  -16.4%
14. COc1cccc(NC(=O)Nc2cccn(Cc3ccccc3)c2=O)c1  -13.7%
15. O=C(O)C(Cc1ccccc1)N1C(=O)c2ccccc2C1=O (stereo not shown)  -13.7%
16. Cc1ccc(Nc2nnc(SCC(=O)NC3CCCc4ccccc43)s2)cc1 (stereo not shown)  -13.3%
17. C/C(CC(=O)Nc1cccc(C(F)(F)F)c1)=N\NC(=O)C1CCCCC1  -13.3%
18. O=C(Nc1cc(C(=O)N2CCCC2)ccc1N1CCCC1)C1CC1  -12.9%
19. Cc1cc(C)n(-c2nnc(C)n2/N=C/c2ccccc2F)n1  -12%
20. Cc1ccc(NC(=O)C2CCN(C(=O)c3ccccc3C)CC2)nc1  -10.9%
21. CCN(C(=O)CSc1ccc2ccccc2n1)C1CCS(=O)(=O)C1 (stereo not shown)  -7.61%
22. CCc1ccc(-c2cc(C)no2)cc1S(=O)(=O)NCCN1CCC(C)CC1  -7.14%
23. COC(=O)c1ccc(Cn2nc([N+](=O)[O-])c(Br)c2C)cc1  -6.89%
24. Cc1ccc(NC(=O)CCc2c(C)nn(-c3ccc(N4CCOCC4)nn3)c2C)cc1  -6.61%
25. COc1nc(Cl)cn(-c2ccc(C)cc2)c1=O  -6.03%
26. CCCCc1nc(N2CCOCC2)c(C#N)c2c1CCCC2  -5.16%
27. COCCCNC(=O)COc1ccc(-c2nccc(-c3ccccn3)n2)cc1  -3.83%
28. NCC/C=C1/c2ccccc2CSc2ccccc21.O=C(O)/C=C\C(=O)O  -3.76%
29. COc1ccc(-c2nc(-c3cccc(C(F)(F)F)c3)no2)cc1OC  -2.54%
30. Cc1ccc(S(=O)(=O)c2cc3c(=O)n4ccccc4nc3n(C)c2=N)cc1C  -2.47%
31. COc1ccc(Cl)cc1NC(=O)C/C(C)=N/NC(=O)c1ccc(O)cc1  -1.35%
32. O=C(NCc1cccnc1)c1cc(S(=O)(=O)N2CCOCC2)c(Cl)cc1Cl  -0.858%
33. Cc1csc(NC(=O)CCC(=O)N(CC(=O)NC2CCCC2)Cc2ccco2)n1  0.0555%
34. CN1C(=O)c2ccccc2C(C(=O)O)C1c1cccc(F)c1 (stereo not shown)  0.483%
35. Cn1c(N)c(C(=O)COC(=O)C2CCCN2C(=O)c2cccs2)c(=O)n(C)c1=O (stereo not shown)  0.553%
36. CCn1c(=O)[nH]c2cc(C(=O)N3CCN(c4ccccc4)CC3)ccc2c1=O  0.849%
37. CCCN1CCN(C(=S)Nc2ccc3nc(N4CCN(CC)CC4)cc(C)c3c2)CC1  2.61%
38. Cc1cccc(C(=O)Nc2cccnc2Cl)c1  2.66%
39. CCCCn1c(N)c(N(CCOC)C(=O)c2cnc(C)cn2)c(=O)[nH]c1=O  3.09%
40. Cc1ccc(OCc2cc(C(=O)N3CCCCCCC3)no2)cc1C  3.22%
41. N#CC1=C(S)N(c2ccc(F)cc2)C2(CCCCC2)NC1=O  3.65%
42. O=C1NC(=O)C(=Cc2coc3ccccc3c2=O)C(=O)N1  4.1%
43. CC1=[N+](C)N(c2ccccc2)C(=O)C1N=C/C=C/c1ccccc1 (stereo not shown)  5.16%
44. COc1ccc(-c2cc(C(=O)n3cnc4ccccc43)c3ccccc3n2)cc1  5.38%
45. Cc1ccc(S(=O)(=O)NC2(C(F)(F)F)C(=O)Nc3c2c(=O)[nH]c(=O)n3-c2ccccc2)cc1 (stereo not shown)  5.57%
46. O=C(O)CCC(=O)NCCC1=c2ccccc2=N/C1=C\c1c(O)n(Cc2ccc(F)cc2)c(=S)[nH]c1=O  5.66%
47. COc1ccc(CCCNC(=O)CC#N)cc1OC  5.89%
48. CCOC(=O)c1ccccc1NC(=O)C(C)Oc1ccccc1 (stereo not shown)  5.95%
49. O=C(CCc1c[nH]c2ccccc12)N/N=C/c1ccc2c(c1)OCO2  6.33%
50. C[C@H]1C[C@H]2[C@@H]3CCC4=CC(=O)C=C[C@]4(C)[C@@]3(Cl)[C@@H](O)C[C@]2(C)[C@@]1(O)C(=O)CO  6.63%
51. COC(=O)c1cccc(S(=O)(=O)N(Cc2ccco2)Cc2cc3ccc(OC)cc3[nH]c2=O)c1  7.12%
52. COc1ccc(N2C(=O)C(Cl)=C(Nc3ccccc3O)C2=O)cc1  7.15%
53. CC(=O)c1c(COC(=O)c2cccnc2)nc2ccccc2[n+]1[O-]  8.18%
54. Cc1cccc(C(=O)OCC(=O)NC2CCCCCCC2)c1  8.28%
55. CCOc1ccc(C(CC(=O)O)n2cnnn2)cc1 (stereo not shown)  8.35%
56. CCOC(=O)C(NCCc1ccccc1F)(NC(C)=O)C(F)(F)F (stereo not shown)  8.38%
57. O=C(CSc1nnc(CN2CCOCC2)n1-c1ccc(Cl)cc1)N1CCc2ccccc21  8.46%
58. O=c1[nH]n2c(=O)c3c([nH]c2c1N=Nc1cccc(Cl)c1)CCC3  9.78%
59. COCCNC(=O)CN(Cc1cccs1)C(=O)CCC(=O)Nc1nccs1  10.4%
60. CC(=O)[C@@H]1[C@@H](C)N(Cc2ccccc2)C(=O)N[C@H]1c1ccccc1  10.4%
61. CCOc1ccc(C(=O)Nc2c(C(N)=O)oc3ccccc23)cc1  11.9%
62. O=c1cc(Cc2ccccc2)[nH]c(=S)[nH]1  12.7%
63. NS(=O)(=O)c1cccc(NC(=O)COC(=O)c2cc(-c3ccc(Cl)cc3)nc3ccccc23)c1  13.6%
64. COc1ccc(NC(=O)C2=C(C)Nc3nc(CCCO)nn3C2c2ccc(OC)c(OC)c2)cc1 (stereo not shown)  13.8%
65. CCSc1nc2c(c(=O)[nH]c(=O)n2C)n1CC(O)COc1ccccc1 (stereo not shown)  14.3%
66. Cc1c(/C=N\NC(=O)c2csc3ccccc23)cnn1C  14.6%
67. CCOC(=O)c1ccc(NC(=O)CSc2nc3sc(C(=O)O)c(C)c3c(=O)[nH]2)cc1  15.6%
68. CCN(CC)c1ccc(NC(=O)c2c(OC)cccc2OC)c(C)c1  15.9%
69. CCOC(=O)c1ccc(N2C(=O)C(CC(N)=O)N(CCc3ccc(OC)c(OC)c3)C2=S)cc1 (stereo not shown)  16%
70. O=[N+]([O-])c1cc(S(=O)(=O)C(F)(F)F)ccc1NCC1CCCO1 (stereo not shown)  16.5%
71. COc1cc(/C=N/NC(=O)COc2c(C)cc([N+](=O)[O-])cc2C)ccc1OC(=O)c1ccccc1  17.2%
72. CN=C(Nc1cc(C)nn1CCC#N)c1ccccc1  17.2%
73. CCCOc1ccc(/C=N/NC(=O)C2CC2)c(OCCC)c1  17.8%
74. CCN(CC(=O)Nc1c(F)cccc1F)C(=O)c1ccc(=O)[nH]c1  18.2%
75. Oc1ccc(F)c2cccnc12  18.2%
76. CNC(=O)/C(C#N)=C\c1ccc(CNS(=O)(=O)c2ccc(Cl)cc2)o1  18.4%
77. CCC1Sc2ccc(S(=O)(=O)CCC(=O)Nc3ccc(NC(C)=O)cc3)cc2NC1=O (stereo not shown)  19%
78. CCN1C[C@@]2(COC)C3[C@@H](OC)[C@H]4[C@@H]1[C@@]3(C1C[C@H]3[C@H](O)C1[C@]4(O)C[C@H]3OC)[C@@H](OC)C[C@H]2O (stereo partly shown)  19%
79. CCc1ccc(NC(=O)C2CCN(S(=O)(=O)c3ccc4c(c3)NC(=O)C(C)S4)CC2)cc1 (stereo not shown)  19.2%
80. Cc1ccc(NC(=O)CSc2nc(N)cc(=O)[nH]2)cc1S(=O)(=O)N1CCOCC1  20%
81. CCc1nonc1NC(=O)c1oc2c(C)c(C)ccc2c1C  22.4%
82. CCOC(=O)c1ccc(Cl)c(S(=O)(=O)N2CCCC2)c1  23.8%
83. O=C1CCCN2N=C(SCC(=O)Nc3ccc(Br)cc3)SC2=N1  26.2%
84. CC(C)(C)CC(C)(C)NC(=S)N1CCN(Cc2ccc3c(c2)OCO3)CC1  35.1%
85. CC1=NN(C(=O)c2ccccc2-n2cccc2)C(O)(C(F)(F)F)C1 (stereo not shown)  39.8%
